# Assay results taken from PubChem BioAssay AID651820 (National Center for Advancing Translational Sciences (NCATS), 2012).
# The whole screen tested about 340,000 compounds, of which about 12,000 (3.5%) were called active. The shares of active, inactive and inconclusive entries below differ from those in the screen. Calls come from the whole dose curve; as a rule, active = well fitted inhibition curve with a large enough effect; inconclusive = small, poorly fitted or top-dose-only effect, or another doubt; inactive = no such curve, though single readings can be large or run the other way. No potency is given beside an inconclusive call; the fits are too rough.
# Assay: qHTS Assay for Inhibitors of Hepatitis C Virus (HCV)
# Conditions: Huh7.5.1 HCVcc-Cre (HCVcc is cell-culture hepatitis C virus) infection, luciferase reporter, 44 h; activity change, negative = inhibition: at 41.8 µM (top of the series) unless noted
# Procedure, shortened: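 After 44 h co-culture of compound, cells and HCVcc-Cre (~0.5 moi), substrate is added for 15 min at room temperature and luciferase measured over 15 sec. Cells were seeded at 1,000/well and pre-cultured 4 h.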
# % is set by controls: 0 for no effect and ±100 for the full control effect; potency is the fitted concentration of half-maximal effect; tags give direction and shape of the fitted curve.
SMILES,Potency,"activity change, negative = inhibition"
COc1ccc(CN2CCN(C(=O)C3CC(=O)N(C4CCCCCC4)C3)CC2)c(OC)c1OC (configuration not stated),"inconclusive [inhibitor, partial curve]",–
O=[N+]([O-])c1cccc(-c2nc(-c3ccncc3)no2)c1,"inconclusive [inhibitor, partial curve]",–
COCC(C)n1c(SCC(=O)Nc2c(C)n(C)n(-c3ccccc3)c2=O)nc2ccccc2c1=O (configuration not stated),–,inactive: -11.2%
COc1ccc2c(CCNC(=O)c3ccc([N+](=O)[O-])cc3)c[nH]c2c1,"inconclusive [inhibitor, single point]",–
CC[C@]12c3[nH]c4cc(CCC(=O)N(C)C)ccc4c3CCN1C(=O)[C@@H](CC(=O)NC/C=C(\C)CCC=C(C)C)C[C@@H]2C(=O)N1CCN(C(=O)c2ccco2)CC1,"inconclusive [inhibitor, single point]",–
Cc1c(N=Cc2c(O)n(CCc3ccccc3)c(=O)[nH]c2=O)c(=O)n(-c2ccccc2)n1C,"inconclusive [inhibitor, full curve, poor fit]",–
CCN(CC)c1ccc2c(C)c(-c3ccc(N)cc3)c(=O)oc2c1,active: 8.91 µM,–
COc1cccc(-c2cc(C(F)(F)F)nc(N3CCCCC3)n2)c1,"inconclusive [inhibitor, single point]",–
Cn1ncc2c(O/N=C(\N)c3ccc(C(F)(F)F)cc3)ncnc21,"inconclusive [inhibitor, full curve]",–
Cc1ncc([N+](=O)[O-])n1CCOC(=O)Nc1ccc(Cl)c(Cl)c1,"inconclusive [inhibitor, partial curve]",–
COc1ccc(NCC(=O)n2c(C)c(C)c3ccccc32)cc1,"inconclusive [inhibitor, single point]",–
CC(NC(=S)Nc1ccc(F)cc1)c1ccccc1 (configuration not stated),–,inactive: -16.2%
CCOC(=O)c1sc(NC(=O)c2ccncc2)c(C#N)c1C,"inconclusive [inhibitor, single point]",–
Cc1cccc(-c2nc(C#N)c(NCc3ccco3)o2)c1,–,inactive: -10.5%
CC(=O)OCC1OC(n2cc(F)c(=O)[nH]c2=O)C(OC(C)=O)C1OC(C)=O (configuration not stated),–,inactive: -7.83%
CCOC(=O)c1nnn(-c2nonc2N)c1CSc1ccccc1,–,inactive: -2.74%
CC(C)(C)C1=CC(=O)C(N2CCOCC2)=CC1=O,–,inactive: -11.4%
COc1ccc(CC(=O)Nc2nc3ccc(F)cc3s2)cc1S(=O)(=O)N1CCOCC1,active: 12.6 µM,–
Cc1cc(C)c(SCCc2ccncc2)c(C)c1,"inconclusive [inhibitor, partial curve]",–
COc1ccc(NC(=O)CO/N=C/C(=O)Nc2ccccc2C)c([N+](=O)[O-])c1,"inconclusive [inhibitor, single point]",–
CC(/C=N/NC(=O)Cn1cnc2ccccc21)=C\c1ccccc1,–,inactive: -5.16%
CCOc1ccc(S(=O)(=O)N2CCN(C(=O)c3oc4ccc(OC)cc4c3C)CC2)cc1,–,inconclusive: -45.7% [inhibitor]
CC(NC(=O)c1ccccc1)C(=O)NC1CCCc2ccccc21 (configuration not stated),–,inactive: 6.41%
O=C(Cc1c(F)cccc1Cl)Nc1ncc([N+](=O)[O-])s1,"inconclusive [inhibitor, single point]",–

SMILES,Potency,"activity change, negative = inhibition"
O=S(=O)(/C=C/C=C/S(=O)(=O)c1ccccc1)c1ccccc1,active: 8.91 µM,–
Cc1ccc(S(=O)(=O)N2CCOCC2)cc1C(=O)OC(C)C(=O)c1ccccc1 (configuration not stated),active: 3.55 µM,–
Cc1ccc(/C=N/Nc2ncc(Cl)cc2Cl)s1,"inconclusive [inhibitor, single point]",–
COC(=O)c1oc2ccccc2c1NC(=O)c1ccccc1O,"inconclusive [inhibitor, single point]",–
Cc1nn(-c2ccc(F)cc2)c(C)c1NS(=O)(=O)c1ccc(Cl)cc1,"inconclusive [inhibitor, partial curve]",–
NS(=O)(=O)c1ccc(NC(=O)/C=C/c2ccc3c(c2)OCO3)cc1,"inconclusive [inhibitor, full curve, poor fit]",–
CN(C)/C=C(\C#N)c1nc2ccccc2[nH]1,–,inactive: 0.492%
COc1ccc2c(c1)c(C(=O)CN1CCc3ccccc3C1)c(C)n2C,"inconclusive [inhibitor, single point]",–
COc1ccc(OCc2nnc(SCC(=O)Nc3cccc(Cl)c3)o2)cc1,–,inactive: 4.67%
O=C1C2ON(c3ccccc3)C(c3ccncc3)C2C(=O)N1c1ccc(N2CCOCC2)cc1 (configuration not stated),"inconclusive [inhibitor, single point]",–
COc1cc(NC(=S)N2CCN(C(c3ccccc3)c3ccccc3)CC2)cc(OC)c1,"inconclusive [inhibitor, partial curve]",–
Cn1c(SCC(=O)N2CCN(c3ccccc3)CC2)nnc1-c1ccccc1,"inconclusive [inhibitor, single point]",–
COc1ccc(C2(O)C(=O)Nc3ccc(C)cc32)cc1 (configuration not stated),–,inactive: -2.66%
CC(C)(C)c1ccc(S(=O)(=O)N2CCC(N3CCCCC3)CC2)cc1,"inconclusive [inhibitor, partial curve]",–
O=C(NNC(=O)C1CCN(Cc2ccc(F)cc2Cl)CC1)Nc1ccc([N+](=O)[O-])cc1,active: 11.2 µM,–
Cc1ccc(N2CCN(S(=O)(=O)c3ccc(F)c(C)c3)CC2)c(C)c1,–,inactive: -16.3%
Cc1cc(Cl)c2ccccc2n1,–,inactive: 12.9%
O=C1C=C(Nc2ccc(F)cc2)c2ccccc2C1=O,"inconclusive [inhibitor, partial curve]",–
CC(C)c1nc2sc3c(SCC(=O)NCc4ccco4)ncnc3c2c2c1CCC2,"inconclusive [inhibitor, full curve, poor fit]",–
CCN(CC)C(=O)CSc1nc2cc(OC)c(OC)cc2c(=O)n1Cc1ccc(Cl)cc1,"inconclusive [inhibitor, partial curve, poor fit]",–
COc1cc(/C=N/NC(=O)CCn2c3ccccc3c3ccccc32)cc(OC)c1OC,"inconclusive [inhibitor, single point]",–
CCOc1ccc(/C=C2/Sc3ccc(C(=O)N4CCOCC4)cc3N(C)C2=O)cc1OC,"inconclusive [inhibitor, partial curve]",–
Nc1c2c(nc3sc4c(c13)CCCC4)CCCCC2,"inconclusive [inhibitor, single point]",–
Cc1cccc(N=C2NC(=O)/C(=C/C=C/c3ccco3)S2)c1,"inconclusive [inhibitor, single point]",–

SMILES,Potency,"activity change, negative = inhibition"
COc1ccc(C)cc1N(C(=O)c1snc(C(N)=O)c1N)C(C(=O)NC1CCCC1)c1ccc(F)cc1 (configuration not stated),"inconclusive [inhibitor, single point]",–
FC(F)(F)c1cc(-c2ccco2)nc(-n2nc(C(F)(F)F)cc2C2CC2)n1,"inconclusive [inhibitor, full curve]",–
O=C(c1cc(-c2ccco2)on1)N1CCCc2ccccc21,–,inactive: -4.9%
COC(=O)c1c(NC(=O)C(C)(C)C)sc2c1C(C(=O)OC)CC2 (configuration not stated),"inconclusive [inhibitor, partial curve]",–
CN(C)C(=O)COC(=O)c1ccccc1Nc1ccc(SC(F)F)cc1,"inconclusive [inhibitor, single point]",–
O=S(=O)(c1ccc(Br)s1)N1CCN(CCOc2ccccc2)CC1,"inconclusive [inhibitor, single point]",–
CN1CCCC2(CCCN(Cc3nc(Cc4cccc(C(F)(F)F)c4)no3)C2)C1 (configuration not stated),"inconclusive [inhibitor, single point]",–
CCCOc1ccc(C(=O)Nc2ccc(S(=O)(=O)N3C[C@@H]4C[C@@H](C3)c3cccc(=O)n3C4)cc2)cc1,active: 3.16 µM,–
O=C(CCC1CCCN(Cc2ccc3c(c2)CCO3)C1)NCc1ccc(F)c(F)c1 (configuration not stated),–,inactive: -6.87%
O=C(CSCc1ccc([N+](=O)[O-])cc1)NC1CC1,–,inactive: 10.3%
COC(=O)c1ccc(N2CCN(c3ccccc3)CC2)c(NC(=O)C2CC2)c1,–,inactive: -14.4%
COCCN(Cc1cc2cc3c(cc2nc1Cl)OCO3)C(=O)c1cccc(C)c1,active: 12.6 µM,–
CO/N=C/NC(=O)NOCc1c(Cl)cccc1Cl,–,inactive: -11%
O=c1sc2ccccc2c(N2CCOCC2)c1[N+](=O)[O-],–,inactive: 4.64%
O=C(COC(=O)c1cc(S(=O)(=O)N2CCOCC2)ccc1O)Nc1ccc2c(c1)OCO2,–,inactive: -8.19%
ClCC1CN(Cc2ccccc2Cl)CCO1 (configuration not stated),–,inactive: 14.6%
COc1ccc(C(=O)N2CCCC(c3nc(-c4ccc(OC)c(OC)c4)no3)C2)c(OC)c1 (configuration not stated),"inconclusive [inhibitor, single point]",–
COC(=O)c1cnn(-c2ccccc2)c1/C=N/NC(=S)Nc1ccc(Cl)cc1,"inconclusive [inhibitor, single point]",–
O=c1n(Cc2ccc(Cl)cc2)c2sc3c(c2c2ncnn12)CCCC3,"inconclusive [inhibitor, partial curve]",–
O=C(NC(Cc1ccccc1)C(=O)O)C1CCCCC1 (configuration not stated),inactive,–
COc1ccc(-c2noc(CN(C)C(=O)c3ccoc3C)n2)cc1,"inconclusive [inhibitor, single point]",–
Nc1ccc(C(=O)N/N=C\c2ccc(OC(=O)c3ccccc3Cl)cc2)cc1,–,inactive: -8.13%
COc1ccc(C(C)=O)cc1CSc1nnc(-c2ccc(Cl)cc2)n1-c1ccccc1,active: 7.94 µM,–
Cc1cc(NC(=O)c2noc3c2CCCC3)nn1Cc1ccc(Cl)cc1,"inconclusive [inhibitor, single point]",–
